# Measurements reported in PubChem BioAssay AID1347120 (National Center for Advancing Translational Sciences (NCATS), 2019).
# In all, about 390,000 compounds went through this assay and about 930 (0.24%) were called active. The inconclusive results got no clear call from the source; some entries with a clear call stand among them for comparison. Calls follow the shape of the dose curve; as a rule, active = well fitted activation curve with a large enough effect; inconclusive = small, poorly fitted or top-dose-only effect; inactive = no such curve, though single readings can be large or run the other way. A potency beside an inconclusive call is a rough fit, not a confirmed value.
# Assay: qHTS for Suppressors of FUS Proteinopathy: Primary screen using FUS-linked yeast assay; also: nearly all actives have a fitted effect of over 55% in size;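 as to growth rescue (activation): plate controls were DMSO vehicle for no effect and reference control for full effect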
# Conditions: S. cerevisiae FUS-expressing, OD600, 24 h; Potency: growth rescue; growth rescue (activation): at 76.6 µM (top of the series)
# Summary of the method: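 Restored growth of FUS-toxic S. cerevisiae, read as 600 nm absorbance after 24 h at 30C in galactose medium (starting OD 0.005). Controls CP55940 and DMSO.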
# Potency is read from the fitted curve at half-maximal effect; tags tell the direction and shape of the fitted curve.
Structure (SMILES),Potency,growth rescue (activation)
COc1ccc2c(c1)CC(C(=O)NCCN1CCN(c3cccc(C)c3C)CC1)CO2 (centres undefined),inactive,–
CC(=O)Nc1ccc(NC(=O)C2CCN(S(=O)(=O)c3ccc4c(c3)OCCO4)CC2)cc1,inactive,–
O=c1c2ccccc2sc2nc(C3CCCCC3)n(Cc3ccco3)c(=O)c12,inactive,–
CSc1cccc(NC(=O)C2CCN(S(=O)(=O)c3ccc4[nH]c5c(c4c3)CCCCC5)CC2)c1,"inconclusive: 12.6 µM [activator, partial curve, poor fit]",–
CC(=O)c1cccc(NC(=O)CN2C(=O)c3cccnc3Oc3ccc(Cl)cc32)c1,"inconclusive: 44.7 µM [activator, partial curve, poor fit]",–
CCCCCCCn1c(NC(=O)CC)nc2ccccc21,inactive,–
CC(C)c1ccc(NC(=O)N2CCc3nc(NCc4cccc(Oc5ccccc5)c4)ncc3C2)cc1,"inconclusive: 31.6 µM [activator, single point]",–
CCOC(=O)[C@]12CCCC=C1N(CCC1=CCCCC1)C(=O)[C@H](CC(=O)NCc1cccs1)C2,"inconclusive: 28.2 µM [activator, partial curve, poor fit]",–
Cc1cc(Cl)ccc1NS(=O)(=O)c1ccc2c(c1)CC(C)N2C(=O)C1CCC1 (centres undefined),"inconclusive: 39.8 µM [activator, single point]",–
O=C(N/N=C/c1c[nH]c2ccccc12)c1cc(-c2ccc(-c3ccccc3)cc2)n[nH]1,"inconclusive: 22.4 µM [activator, partial curve, poor fit]",–
O=c1cc(O)nc(SCc2ccccc2)n1-c1ccc(F)cc1,"inconclusive: 39.8 µM [activator, partial curve, poor fit]",–
CC(=O)OCc1c(C(F)(F)F)nn(C)c1Oc1ccccc1,–,inconclusive: 88.3% [activator]
Nc1nnc(SCC(=O)NC23CC4CC(CC(C4)C2)C3)s1,inactive,–
CCCc1nc(Nc2nc3ccccc3o2)nc(C)c1C(=O)OCC,–,inconclusive: 66.6% [activator]
COc1ccc(/C=C2\CCCC3C2=NN(C(=O)COC(=O)CNC(=O)c2ccccc2)C3c2ccc(OC)cc2)cc1 (centres undefined),"inconclusive: 35.5 µM [activator, single point]",–
CCOc1cc(C(=O)N2CCC(CC3CC(c4ccccc4)=NO3)(C(=O)NCc3ccc(OC)cc3)CC2)cc(OCC)c1OCC (centres undefined),active: 17.8 µM,–
COc1ccc(N(C(=O)c2snc(C(N)=O)c2N)C(C(=O)NCc2ccc(F)cc2)c2ccc(O)cc2)cc1 (centres undefined),active: 28.2 µM,–
COc1ccc(N(CC(=O)Nc2ccc(S(=O)(=O)N3CCCCC3)cc2)S(C)(=O)=O)cc1OC,"inconclusive: 50.1 µM [activator, single point]",–
O=C(Cn1cnc2nc3c(cc2c1=O)CCCC3)N1CCN(c2ccccc2)CC1,inactive,–
CCCCCCSc1ccc(-c2nc3ccc(C)cn3c2NCCCC)cc1OC,active: 15.8 µM,–
Oc1ccc(C[C@@H](CN2CCC[C@@H]2CN2C(=S)NC[C@@H]2Cc2ccccc2)N2C[C@H](Cc3ccccc3)N(CCc3ccccc3)C2=S)cc1,"inconclusive: 39.8 µM [activator, single point]",–
COC(=O)c1cccc(CN2C(=O)C(C)Sc3ccc(C(C)=O)cc32)c1 (centres undefined),"inconclusive: 39.8 µM [activator, partial curve, poor fit]",–

Structure (SMILES),Potency,growth rescue (activation)
CCOc1ccc(N2CC(c3nc4ccccc4n3CCOc3ccc(CC)cc3)CC2=O)cc1 (centres undefined),inactive,–
Cc1ccc2cc(C(c3nnnn3C3CCCC3)N(Cc3cccnc3)Cc3ccco3)c(=O)[nH]c2c1 (centres undefined),inactive,–
O=[N+]([O-])c1ccc2nc(CNc3nc(N4CCOCC4)nc4c3ncn4-c3ccsc3)[nH]c2c1,inactive,–
COc1cccc(C2=CC(c3ccccc3F)n3c(nc4ccccc43)N2)c1 (centres undefined),inactive,–
COc1ccc(CN2CCC[C@]3(N[C@H](c4ccc(C(F)(F)F)cc4)[C@@H]4C(=O)N(Cc5ccccc5)C(=O)[C@@H]43)C2=O)cc1,"inconclusive: 20 µM [activator, single point]",–
C=C(C)C(=O)OCC(=O)NCc1ccccc1,inactive,–
O=C(CSc1nc2ccccc2n1Cc1c(F)cccc1Cl)N1CCN(c2ccc(F)cc2)CC1,inactive,–
Cc1nc2c(c(=O)n1CCC1=CCCCC1)c1nc3ccccc3nc1n2/N=C/c1ccco1,"inconclusive: 3.98 µM [activator, full curve]",–
CCCCc1c(-c2cccc(Br)c2)ncn1CCc1ccccc1OC,inactive,–
CCOc1ccc(NC(=O)c2cc(C3CC3)nc3c2cnn3C(C)C)cc1OC,"inconclusive: 20 µM [activator, single point]",–
CCOc1ccccc1O[C@H](c1ccccc1)[C@H]1CNCCO1,inactive,–
Cc1cccc(Oc2ncnc(N)c2[N+](=O)[O-])c1,inactive,–
Cc1ccc(CCNC(=O)c2ccc(CS(=O)(=O)Cc3ccccc3F)o2)cc1,"inconclusive: 2.51 µM [activator, full curve]",–
COC(=O)C1=CN(C2CC2)C=C(C(=O)OC)C1c1ccc(C(=O)OC)cc1,inactive,–
CCC(C)[C@H](NC(=O)C1COC(O)([C@H](Cc2ccccc2)NC(=O)[C@@H](NC(=O)OCc2ccccc2)C(C)C)CN1C)C(=O)N[C@H](C(=O)OC)C(C)C (some centres undefined),"inconclusive: 20 µM [activator, single point]",–
COc1ccc(OC)c(NC(=O)CCS(=O)(=O)c2cc3c(cc2C)NC(=O)CO3)c1,inactive,–
COc1ccc(S(=O)(=O)N2CCCCCC2)cc1C(=O)N1CCN(c2ccccc2O)CC1,"inconclusive: 15.8 µM [activator, partial curve, poor fit]",–
Cn1nc(C(=O)NNC(=O)CCOc2ccc(C(C)(C)C)cc2)c2ccccc2c1=O,"inconclusive: 25.1 µM [activator, single point]",–
C#CCN(C[C@@H]1[C@@H](OC(=O)NC2CC2)[C@@H](OC(=O)NC2CC2)CN(C(=O)OC(C)C)N1C(=O)OC(C)C)S(=O)(=O)c1ccc(C)cc1,"inconclusive: 15.8 µM [activator, partial curve, poor fit]",–
O=C(COC(=O)Cc1ccc(S(=O)(=O)N2CCOCC2)s1)Nc1ccccc1,"inconclusive: 20 µM [activator, partial curve]",–
COc1ccc(-n2c(SCC(=O)Nc3ccccc3-c3ccccc3)nnc2-c2ccco2)cc1,"inconclusive: 22.4 µM [activator, partial curve, poor fit]",–
CCOC(=O)c1c(C)oc2nc(C)nc(NCC3CCN(Cc4cccc(Cl)c4)CC3)c12,inactive,–

Structure (SMILES),Potency,growth rescue (activation)
COc1ccc(-n2c(SC/C=C/c3ccccc3)nnc2-c2cccs2)cc1,"inconclusive: 22.4 µM [activator, single point]",–
COCCCNC(=O)CSC1=Nc2ccccc2C2=NC(CC(=O)NCc3ccccc3)C(=O)N12 (centres undefined),inactive,–
CN1C(=O)c2cc(NS(=O)(=O)c3ccc(F)cc3)ccc2OC[C@H]2O[C@@H](CC(=O)NCC(F)(F)F)CC[C@@H]21,inactive,–
Cc1csc2c(NCCCN3CCOCC3)ncnc12,"inconclusive: 28.2 µM [activator, single point]",–
CN(C)S(=O)(=O)c1cc(C(=O)NCCCn2ccc3ccccc32)ccc1Cl,"inconclusive: 39.8 µM [activator, partial curve, poor fit]",–
CCOC(=O)c1ccc(NS(=O)(=O)c2ccc3[nH]c4c(c3c2)CCCCC4)cc1,"inconclusive: 28.2 µM [activator, single point]",–
CCc1nn(CC(=O)N2CCN(c3cccc(C(F)(F)F)c3)CC2)c(=O)c2cccn12,inactive,–
CC(C)(C)c1ccc(C(=O)N2CCC(=O)N([C@H](COCc3ccccc3)Cc3ccccc3)CC2)cc1,"inconclusive: 31.6 µM [activator, single point]",–
O=C(Nc1ccccc1)N1CCCN(c2nccc(C(F)(F)F)n2)CC1,inactive,–
CCCc1cc(NCCCCO)n2c(nc3ccccc32)c1C#N,"inconclusive: 20 µM [activator, partial curve]",–
C[C@@H]1CCCCO[C@H](CN(C)C(=O)Nc2ccc(C(F)(F)F)cc2)[C@@H](C)CN([C@H](C)CO)C(=O)c2cc(NC(=O)c3ccncc3)ccc2O1,"inconclusive: 31.6 µM [activator, single point]",–
Cc1cc(C(=O)O[C@H]2CCC[C@@]3(C(=O)N(Cc4ccccc4)c4ccccc43)[C@H]2NC(=O)CCc2ccccc2)no1,"inconclusive: 11.2 µM [activator, partial curve, poor fit]",–
O=C(Cc1ccc(NC(=O)C2CCCN(C(=O)CCc3ccccc3)C2)cc1)Nc1cccc(C(=O)N2CCCCC2)c1 (centres undefined),"inconclusive: 25.1 µM [activator, single point]",–
COc1cc(NC(=O)COc2ccc3c(C)cc(=O)oc3c2C)cc(OC)c1OC,inactive,–
CCOc1ccc(NC(=O)CN2C(=O)C3(SCC(=O)N3c3ccc(F)cc3)c3ccccc32)cc1 (centres undefined),inactive,–
Fc1ccc(F)c(C2=NNC(=Nc3ccccc3F)SC2)c1,inactive,–
O=C(Cc1ccc([N+](=O)[O-])cc1)N/N=C/c1ccc([N+](=O)[O-])o1,inactive,–
COc1cc(NC(=O)COC(=O)CNC(=O)C23CC4CC(CC(C4)C2)C3)cc(OC)c1,"inconclusive: 17.8 µM [activator, single point]",–
COc1ccc(C)cc1NC(=O)CSc1nc(=O)n(Cc2ccccn2)c2c1CCC2,"inconclusive: 25.1 µM [activator, partial curve, poor fit]",–
CCN1C(=O)C(Cc2nc3ccccc3c(=O)n2-c2ccccc2)c2cc(Br)ccc21 (centres undefined),"inconclusive: 28.2 µM [activator, single point]",–
